# Test results from paper PMC9911399, “Two distinct binding modes provide the RNA-binding protein RbFox with extraordinary sequence specificity”.
# Numbering of substitutions follows the chain as printed; changes in the protein carry UniProt numbers. This is one part of the list.
# B1: CAGAAAU (DNA:RNA)
# RNA: GGGAGACCGGAAUUCAGAUUGUCCCAGAAAUUUAAAUCCCGUCGUAGCCACCA
# DNA 1: CAATCTGAATTCCGGTCTCCC
# DNA 2: TGGTGGCTACGACGGGATT
# B2: CUGGAAA (DNA:RNA)
# RNA: B1 RNA with A26U, A28G, U31A
# DNA 1: CAATCTGAATTCCGGTCTCCC
# DNA 2: TGGTGGCTACGACGGGATT
# B3: AACAUGC (DNA:RNA)
# RNA: B1 RNA with C25A, G27C, A29U, A30G, U31C
# DNA 1: CAATCTGAATTCCGGTCTCCC
# DNA 2: TGGTGGCTACGACGGGATT
# B4: CAUGUAC (DNA:RNA)
# RNA: B1 RNA with G27U, A28G, A29U, U31C
# DNA 1: CAATCTGAATTCCGGTCTCCC
# DNA 2: TGGTGGCTACGACGGGATT
# B5: CCGCUAA (DNA:RNA)
# RNA: B1 RNA with A26C, A28C, A29U, U31A
# DNA 1: CAATCTGAATTCCGGTCTCCC
# DNA 2: TGGTGGCTACGACGGGATT
# B6: GGCCUGC (DNA:RNA)
# RNA: GGGAGACCGGAAUUCAGAUUGUCCGGCCUGCUUAAAUCCCGUCGUAGCCACCA
# DNA 1: CAATCTGAATTCCGGTCTCCC
# DNA 2: TGGTGGCTACGACGGGATT
# B7: UUCGAUU (DNA:RNA)
# RNA: B1 RNA with C25U, A26U, G27C, A28G, A30U
# DNA 1: CAATCTGAATTCCGGTCTCCC
# DNA 2: TGGTGGCTACGACGGGATT
# B8: AAGUCAU (DNA:RNA)
# RNA: B1 RNA with C25A, A28U, A29C
# DNA 1: CAATCTGAATTCCGGTCTCCC
# DNA 2: TGGTGGCTACGACGGGATT
# B9: UGACGUC (DNA:RNA)
# RNA: B6 RNA with G25U, C27A, U29G, G30U
# DNA 1: CAATCTGAATTCCGGTCTCCC
# DNA 2: TGGTGGCTACGACGGGATT
# B10: GCCAGGU (DNA:RNA)
# RNA: B6 RNA with G26C, C28A, U29G, C31U
# DNA 1: CAATCTGAATTCCGGTCTCCC
# DNA 2: TGGTGGCTACGACGGGATT
# B11: AGAAUAU (DNA:RNA)
# RNA: B1 RNA with C25A, A26G, G27A, A29U
# DNA 1: CAATCTGAATTCCGGTCTCCC
# DNA 2: TGGTGGCTACGACGGGATT
# B12: AAUAAUA (DNA:RNA)
# RNA: B1 RNA with C25A, G27U, A30U, U31A
# DNA 1: CAATCTGAATTCCGGTCTCCC
# DNA 2: TGGTGGCTACGACGGGATT
# B13: AGGGCGG (DNA:RNA)
# RNA: B6 RNA with G25A, C27G, C28G, U29C, C31G
# DNA 1: CAATCTGAATTCCGGTCTCCC
# DNA 2: TGGTGGCTACGACGGGATT
# B14: AGCCUUG (DNA:RNA)
# RNA: B6 RNA with G25A, G30U, C31G
# DNA 1: CAATCTGAATTCCGGTCTCCC
# DNA 2: TGGTGGCTACGACGGGATT
# B15: UGCGACC (DNA:RNA)
# RNA: B6 RNA with G25U, C28G, U29A, G30C
# DNA 1: CAATCTGAATTCCGGTCTCCC
# DNA 2: TGGTGGCTACGACGGGATT
# B16: AGCUGGC (DNA:RNA)
# RNA: B6 RNA with G25A, C28U, U29G
# DNA 1: CAATCTGAATTCCGGTCTCCC
# DNA 2: TGGTGGCTACGACGGGATT
# B17: GUUCACA (DNA:RNA)
# RNA: B6 RNA with G26U, C27U, U29A, G30C, C31A
# DNA 1: CAATCTGAATTCCGGTCTCCC
# DNA 2: TGGTGGCTACGACGGGATT
# B18: CACCCCC (DNA:RNA)
# RNA: B6 RNA with G25C, G26A, U29C, G30C
# DNA 1: CAATCTGAATTCCGGTCTCCC
# DNA 2: TGGTGGCTACGACGGGATT
# B19: UUGCGUC (DNA:RNA)
# RNA: B6 RNA with G25U, G26U, C27G, U29G, G30U
# DNA 1: CAATCTGAATTCCGGTCTCCC
# DNA 2: TGGTGGCTACGACGGGATT
# B20: GACAACC (DNA:RNA)
# RNA: B1 RNA with C25G, G27C, A30C, U31C
# DNA 1: CAATCTGAATTCCGGTCTCCC
# DNA 2: TGGTGGCTACGACGGGATT
# Molecular target: T1, RBFOX1 RRM (Homo sapiens, UniProt Q9NWB1 109-208)
# T1 sequence: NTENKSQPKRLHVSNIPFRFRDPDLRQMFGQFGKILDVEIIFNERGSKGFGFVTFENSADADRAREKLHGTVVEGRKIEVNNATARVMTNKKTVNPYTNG
# Assay: EMSA; HiTS-Eq, 1 nM pool, 10 min; buffer printed only for the single-RNA assays: 10 mM Tris pH 7.5, 150 mM NaCl, 3.4 mM EDTA, 0.001% NP-40, 30 C
# Details: tags: His6 N-terminal (pET28a); label: 5' 32P
# Summary of the method: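 Purified RbFox RRM (wild type or mutant) was equilibrated for 10 min in 50 µL with 1 nM of a 5′-radiolabelled pool of RNA with 7 randomized nucleotides, its flanks annealed to DNA oligonucleotides, across increasing protein concentrations. Free RNA was separated by 8% native PAGE, excised, reverse-transcribed, PCR-barcoded and sequenced on an Illumina HiSeq 2500. Relative association constants came from read-count changes of each variant against the control reaction, normalised to the cognate motif.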
row,Binder,binding signal
1,B1,0.00172 KA relative to UGCAUGU
2,B2,0.0219 KA relative to UGCAUGU
3,B3,0.00362 KA relative to UGCAUGU
4,B4,0.00233 KA relative to UGCAUGU
5,B5,0.00033 KA relative to UGCAUGU
6,B6,0.0206 KA relative to UGCAUGU
7,B7,0.00889 KA relative to UGCAUGU
8,B8,0.00128 KA relative to UGCAUGU
9,B9,0.0179 KA relative to UGCAUGU
10,B10,0.0136 KA relative to UGCAUGU
11,B11,0.00265 KA relative to UGCAUGU
12,B12,0.000771 KA relative to UGCAUGU
13,B13,0.0287 KA relative to UGCAUGU
14,B14,0.0178 KA relative to UGCAUGU
15,B15,0.0118 KA relative to UGCAUGU
16,B16,0.0129 KA relative to UGCAUGU
17,B17,0.00568 KA relative to UGCAUGU
18,B18,0.00447 KA relative to UGCAUGU
19,B19,0.0198 KA relative to UGCAUGU
20,B20,0.00269 KA relative to UGCAUGU
